{
  "source": "the supplement of paper PMC8728848",
  "experiment_in_all_cases": "glycan array binding signal (z-score within array); higher = stronger binding",
  "details_in_all_cases": "glycan notation: IUPAC condensed, linker removed",
  "key": {"[1]": {"target": "Gal(a1-6)Glc", "summary_of_the_method": "(§1)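 Columns mapping to the same glycan were averaged after glycan names were converted to IUPAC-condensed notation. The data come from 3228 arrays in the Consortium for Functional Glycomics database, limited to those with an available protein sequence. Binding is reported as a within-array Z-score averaged across arrays of one protein sequence and across linkers.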"}, "[2]": {"target": "Gal(b1-2)Gal", "summary_of_the_method": "as §1"}, "[3]": {"target": "Gal(b1-3)Gal", "summary_of_the_method": "as §1"}, "[4]": {"target": "Gal(b1-3)Gal(b1-4)GlcNAc", "summary_of_the_method": "as §1"}, "[5]": {"target": "Gal(b1-3)GalNAc", "summary_of_the_method": "as §1"}, "[6]": {"target": "Gal(b1-3)GalNAc(a1-3)[Fuc(a1-2)]Gal(b1-4)Glc", "summary_of_the_method": "as §1"}, "[7]": {"target": "Gal(b1-3)GalNAc(a1-3)[Fuc(a1-2)]Gal(b1-4)GlcNAc", "summary_of_the_method": "as §1"}, "[8]": {"target": "Gal(b1-3)GalNAc(b1-3)Gal", "summary_of_the_method": "as §1"}, "[9]": {"target": "Gal(b1-3)GalNAc(b1-3)Gal(a1-4)Gal(b1-4)Glc", "summary_of_the_method": "as §1"}, "[10]": {"target": "Gal(b1-3)GalNAc(b1-4)Gal(b1-4)Glc", "summary_of_the_method": "as §1"}, "[11]": {"target": "Gal(b1-3)GalNAc(b1-4)[Neu5Ac(a2-3)]Gal(b1-4)Glc", "summary_of_the_method": "as §1"}, "[12]": {"target": "Gal(b1-3)GlcNAc", "summary_of_the_method": "as §1"}, "[13]": {"target": "Gal(b1-3)GlcNAc(a1-3)Gal(b1-4)GlcNAc", "summary_of_the_method": "as §1"}, "[14]": {"target": "Gal(b1-3)GlcNAc(a1-6)Gal(b1-4)GlcNAc", "summary_of_the_method": "as §1"}, "[15]": {"target": "Gal(b1-3)GlcNAc(b1-2)Man", "summary_of_the_method": "as §1"}, "[16]": {"target": "Gal(b1-3)GlcNAc(b1-2)Man(a1-3)[Gal(b1-3)GlcNAc(b1-2)Man(a1-6)]Man(b1-4)GlcNAc(b1-4)GlcNAc", "summary_of_the_method": "as §1"}, "[17]": {"target": "Gal(b1-3)GlcNAc(b1-2)Man(a1-3)[Gal(b1-3)GlcNAc(b1-2)Man(a1-6)]Man(b1-4)GlcNAc(b1-4)[Fuc(a1-6)]GlcNAc", "summary_of_the_method": "as §1"}, "[18]": {"target": "Gal(b1-3)GlcNAc(b1-2)Man(a1-3)[GlcNAc(b1-4)][Gal(b1-3)GlcNAc(b1-2)Man(a1-6)]Man(b1-4)GlcNAc(b1-4)GlcNAc", "summary_of_the_method": "as §1"}, "[19]": {"target": "Gal(b1-3)GlcNAc(b1-2)[Gal(b1-3)GlcNAc(b1-6)]Man(a1-6)[Gal(b1-3)GlcNAc(b1-2)Man(a1-3)]Man(b1-4)GlcNAc(b1-4)GlcNAc", "summary_of_the_method": "as §1"}, "[20]": {"target": "Gal(b1-3)GlcNAc(b1-3)Gal(b1-3)GlcNAc", "summary_of_the_method": "as §1"}, "[21]": {"target": "Gal(b1-3)GlcNAc(b1-3)Gal(b1-4)Glc", "summary_of_the_method": "as §1"}, "[22]": {"target": "Gal(b1-3)GlcNAc(b1-3)Gal(b1-4)GlcNAc", "summary_of_the_method": "as §1"}, "[23]": {"target": "Gal(b1-3)GlcNAc(b1-3)Gal(b1-4)GlcNAc(b1-2)Man(a1-3)[Gal(b1-3)GlcNAc(b1-3)Gal(b1-4)GlcNAc(b1-2)Man(a1-6)]Man(b1-4)GlcNAc(b1-4)GlcNAc", "summary_of_the_method": "as §1"}, "[24]": {"target": "Gal(b1-3)GlcNAc(b1-3)Gal(b1-4)GlcNAc(b1-2)[Gal(b1-3)GlcNAc(b1-3)Gal(b1-4)GlcNAc(b1-6)]Man(a1-6)[Gal(b1-3)GlcNAc(b1-3)Gal(b1-4)GlcNAc(b1-2)Man(a1-3)]Man(b1-4)GlcNAc(b1-4)[Fuc(a1-6)]GlcNAc", "summary_of_the_method": "as §1"}, "[25]": {"target": "Gal(b1-3)GlcNAc(b1-3)Gal(b1-4)GlcNAc(b1-3)Gal(b1-4)GlcNAc(b1-2)[Gal(b1-3)GlcNAc(b1-3)Gal(b1-4)GlcNAc(b1-3)Gal(b1-4)GlcNAc(b1-6)]Man(a1-6)[Gal(b1-3)GlcNAc(b1-3)Gal(b1-4)GlcNAc(b1-3)Gal(b1-4)GlcNAc(b1-2)Man(a1-3)]Man(b1-4)GlcNAc(b1-4)[Fuc(a1-6)]GlcNAc", "summary_of_the_method": "as §1"}, "[26]": {"target": "Gal(b1-3)GlcNAc(b1-3)Gal(b1-4)GlcNAc(b1-6)[Gal(b1-3)GlcNAc(b1-3)]Gal(b1-4)Glc", "summary_of_the_method": "as §1"}, "[27]": {"target": "Gal(b1-3)GlcNAc(b1-3)Gal(b1-4)[Fuc(a1-3)]GlcNAc", "summary_of_the_method": "as §1"}, "[28]": {"target": "Gal(b1-3)GlcNAc(b1-3)Gal(b1-4)[Fuc(a1-3)]GlcNAc(b1-6)[Gal(b1-3)GlcNAc(b1-3)]Gal(b1-4)Glc", "summary_of_the_method": "as §1"}, "[29]": {"target": "Gal(b1-3)GlcNAc(b1-3)GalNAc", "summary_of_the_method": "as §1"}, "[30]": {"target": "Gal(b1-3)GlcNAc(b1-6)Gal(b1-4)GlcNAc", "summary_of_the_method": "as §1"}, "[31]": {"target": "Gal(b1-3)GlcNAc(b1-6)GalNAc", "summary_of_the_method": "as §1"}, "[32]": {"target": "Gal(b1-3)GlcNAc(b1-6)[Gal(b1-3)]GalNAc", "summary_of_the_method": "as §1"}, "[33]": {"target": "Gal(b1-3)GlcNAc6S", "summary_of_the_method": "as §1"}, "[34]": {"target": "Gal(b1-3)[Fuc(a1-4)]GlcNAc", "summary_of_the_method": "as §1"}, "[35]": {"target": "Gal(b1-3)[Fuc(a1-4)]GlcNAc(b1-2)Man", "summary_of_the_method": "as §1"}, "[36]": {"target": "Gal(b1-3)[Fuc(a1-4)]GlcNAc(b1-2)Man(a1-3)[Gal(b1-3)[Fuc(a1-4)]GlcNAc(b1-2)Man(a1-6)]Man(b1-4)GlcNAc(b1-4)[Fuc(a1-6)]GlcNAc", "summary_of_the_method": "as §1"}, "[37]": {"target": "Gal(b1-3)[Fuc(a1-4)]GlcNAc(b1-3)Gal(b1-3)[Fuc(a1-4)]GlcNAc", "summary_of_the_method": "as §1"}, "[38]": {"target": "Gal(b1-3)[Fuc(a1-4)]GlcNAc(b1-3)Gal(b1-4)[Fuc(a1-3)]GlcNAc", "summary_of_the_method": "as §1"}, "[39]": {"target": "Gal(b1-3)[Fuc(a1-4)]GlcNAc(b1-6)GalNAc", "summary_of_the_method": "as §1"}, "[40]": {"target": "Gal(b1-3)[GlcNAc(b1-6)]GalNAc", "summary_of_the_method": "as §1"}, "[41]": {"target": "Gal(b1-3)[Neu5Ac(a2-6)]GalNAc", "summary_of_the_method": "as §1"}, "[42]": {"target": "Gal(b1-3)[Neu5Ac(a2-6)]GlcNAc(b1-4)Gal(b1-4)Glc", "summary_of_the_method": "as §1"}, "[43]": {"target": "Gal(b1-3)[Neu5Ac(b2-6)]GalNAc", "summary_of_the_method": "as §1"}, "[44]": {"target": "Gal(b1-4)Gal", "summary_of_the_method": "as §1"}, "[45]": {"target": "Gal(b1-4)GalNAc(a1-3)[Fuc(a1-2)]Gal(b1-4)GlcNAc", "summary_of_the_method": "as §1"}},
  "note": "This is one part of the list.",
  "data": [
    {"binder": "EPL1 (Trichoderma atroviride), A0PCX2 (protein) MQLSNLFKLALFTAAVSADTVSYDTGYDDASRSLTVVSCSDGTNGLITRYHWQTQGQIPRFPYIGGAQAVAGWNSPNCGTCWKLTYSGKTIYVLAIDHTAAGFNIGLDAMNALTNGNAVALGRVSATASQVAVSNCGL", "values": [
      {"measurement": "glycan array binding signal (z-score)", "setting": "[1]", "value": 0.163},
      {"measurement": "glycan array binding signal (z-score)", "setting": "[2]", "value": -0.342},
      {"measurement": "glycan array binding signal (z-score)", "setting": "[3]", "value": -0.661},
      {"measurement": "glycan array binding signal (z-score)", "setting": "[4]", "value": -0.393},
      {"measurement": "glycan array binding signal (z-score)", "setting": "[5]", "value": 0},
      {"measurement": "glycan array binding signal (z-score)", "setting": "[6]", "value": 0.12},
      {"measurement": "glycan array binding signal (z-score)", "setting": "[7]", "value": -0.552},
      {"measurement": "glycan array binding signal (z-score)", "setting": "[8]", "value": -0.342},
      {"measurement": "glycan array binding signal (z-score)", "setting": "[9]", "value": -0.659},
      {"measurement": "glycan array binding signal (z-score)", "setting": "[10]", "value": -0.263},
      {"measurement": "glycan array binding signal (z-score)", "setting": "[11]", "value": 0.479},
      {"measurement": "glycan array binding signal (z-score)", "setting": "[12]", "value": -0.355},
      {"measurement": "glycan array binding signal (z-score)", "setting": "[13]", "value": -0.079},
      {"measurement": "glycan array binding signal (z-score)", "setting": "[14]", "value": -0.153},
      {"measurement": "glycan array binding signal (z-score)", "setting": "[15]", "value": -0.026},
      {"measurement": "glycan array binding signal (z-score)", "setting": "[16]", "value": 0.242},
      {"measurement": "glycan array binding signal (z-score)", "setting": "[17]", "value": -0.255},
      {"measurement": "glycan array binding signal (z-score)", "setting": "[18]", "value": -0.356},
      {"measurement": "glycan array binding signal (z-score)", "setting": "[19]", "value": -0.036},
      {"measurement": "glycan array binding signal (z-score)", "setting": "[20]", "value": -0.17},
      {"measurement": "glycan array binding signal (z-score)", "setting": "[21]", "value": 1.82},
      {"measurement": "glycan array binding signal (z-score)", "setting": "[22]", "value": -0.163},
      {"measurement": "glycan array binding signal (z-score)", "setting": "[23]", "value": 0.737},
      {"measurement": "glycan array binding signal (z-score)", "setting": "[24]", "value": 0.678},
      {"measurement": "glycan array binding signal (z-score)", "setting": "[25]", "value": 0.216},
      {"measurement": "glycan array binding signal (z-score)", "setting": "[26]", "value": -0.541},
      {"measurement": "glycan array binding signal (z-score)", "setting": "[27]", "value": 0.654},
      {"measurement": "glycan array binding signal (z-score)", "setting": "[28]", "value": -0.506},
      {"measurement": "glycan array binding signal (z-score)", "setting": "[29]", "value": -0.677},
      {"measurement": "glycan array binding signal (z-score)", "setting": "[30]", "value": 0.204},
      {"measurement": "glycan array binding signal (z-score)", "setting": "[31]", "value": -0.18},
      {"measurement": "glycan array binding signal (z-score)", "setting": "[32]", "value": 0.023},
      {"measurement": "glycan array binding signal (z-score)", "setting": "[33]", "value": -0.524},
      {"measurement": "glycan array binding signal (z-score)", "setting": "[34]", "value": -0.24},
      {"measurement": "glycan array binding signal (z-score)", "setting": "[35]", "value": -0.149},
      {"measurement": "glycan array binding signal (z-score)", "setting": "[36]", "value": -0.059},
      {"measurement": "glycan array binding signal (z-score)", "setting": "[37]", "value": 0.594},
      {"measurement": "glycan array binding signal (z-score)", "setting": "[38]", "value": -0.205},
      {"measurement": "glycan array binding signal (z-score)", "setting": "[39]", "value": -0.249},
      {"measurement": "glycan array binding signal (z-score)", "setting": "[40]", "value": -0.027},
      {"measurement": "glycan array binding signal (z-score)", "setting": "[41]", "value": -0.218},
      {"measurement": "glycan array binding signal (z-score)", "setting": "[42]", "value": 0.17},
      {"measurement": "glycan array binding signal (z-score)", "setting": "[43]", "value": 0.127},
      {"measurement": "glycan array binding signal (z-score)", "setting": "[44]", "value": -0.162},
      {"measurement": "glycan array binding signal (z-score)", "setting": "[45]", "value": 0.709}
    ]}
  ]
}
